Test results published in the supplement of paper PMC4967469.
By IC50 is meant the dose at which the fit gives 50% viability; fits outside the tested doses are given as limits. For AUC the same curve is integrated over the 256-fold range of doses and scaled to a fraction; the more sensitive the line, the further below 1. For part of these data: The top dose, if marked as inferred, was derived from the fitted curves, not read from the paper.

Columns and labels:
Experiment in all cases: Viability of human cancer cell lines after 72 h of drug (GDSC screen)
[1] = compound: CS(=O)(=O)CCNCc1ccc(-c2ccc3ncnc(Nc4ccc(OCc5cccc(F)c5)c(Cl)c4)c3c2)o1 [Lapatinib]; conditions: top dose 2 µM
Protocol: (§1)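 Human cancer cell lines in 384-well plates, medium with 10% serum, drug for 72 h over a 256-fold dose range (nine 2-fold or five 4-fold steps up to the top dose). Adherent lines were fixed and stained with the nucleic acid dye Syto60, suspension lines read with resazurin; signal relative to control wells, capped at 0 and 100%. One two-parameter sigmoid per drug and line, fitted in a mixed model over all curves with the slope shared within a line.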

[2] = compound: CN(C)CCOc1ccc(-c2nc(-c3ccncc3)c(-c3ccc4c(c3)CC/C4=N\O)[nH]2)cc1 [SB590885]; conditions: top dose 5 µM; top dose inferred
Protocol: as §1

[3] = compound: Cc1cc(C(C)Nc2ccccc2)c2nc(N3CCOCC3)cc(=O)n2c1 [TGX221]; conditions: top dose 10 µM
Protocol: as §1

[4] = compound: CCN(CC)CCCCNc1ncc2cc(-c3cc(OC)cc(OC)c3)c(NC(=O)NC(C)(C)C)nc2n1 [PD-173074]; conditions: top dose 2 µM; top dose inferred
Protocol: as §1

Cell Line: KURAMOCHI (ovary, adherent)
- AUC [1]: 0.964
- IC50 [1]: > 2000 nM
- AUC [2]: 0.984
- IC50 [2]: > 5000 nM
- AUC [3]: 0.895
- IC50 [3]: > 10000 nM
- AUC [4]: 0.984
- IC50 [4]: > 2000 nM

Cell Line: EM-2 (chronic myeloid leukaemia, suspension)
- AUC [1]: 0.981
- IC50 [1]: > 2000 nM
- AUC [2]: 0.982
- IC50 [2]: > 5000 nM
- AUC [3]: 0.973
- IC50 [3]: > 10000 nM
- AUC [4]: 0.974
- IC50 [4]: > 2000 nM

Cell Line: RH-1 (rhabdomyosarcoma, adherent)
- AUC [1]: 0.985
- IC50 [1]: > 2000 nM
- AUC [2]: 0.991
- IC50 [2]: > 5000 nM
- AUC [3]: 0.991
- IC50 [3]: > 10000 nM
- AUC [4]: 0.986
- IC50 [4]: > 2000 nM

Cell Line: NCI-H526 (small cell lung carcinoma, suspension)
- AUC [1]: 0.988
- IC50 [1]: > 2000 nM
- AUC [2]: 0.96
- IC50 [2]: > 5000 nM
- AUC [3]: 0.989
- IC50 [3]: > 10000 nM
- AUC [4]: 0.984
- IC50 [4]: > 2000 nM

Cell Line: NCI-H226 (lung squamous cell carcinoma, adherent)
- AUC [1]: 0.975
- IC50 [1]: > 2000 nM
- AUC [2]: 0.986
- IC50 [2]: > 5000 nM
- AUC [3]: 0.986
- IC50 [3]: > 10000 nM
- AUC [4]: 0.92
- IC50 [4]: > 2000 nM

Cell Line: NCI-H2135 (non-small cell lung carcinoma, adherent)
- AUC [1]: 0.991
- IC50 [1]: > 2000 nM
- AUC [2]: 0.991
- IC50 [2]: > 5000 nM
- AUC [3]: 0.979
- IC50 [3]: > 10000 nM
- AUC [4]: 0.991
- IC50 [4]: > 2000 nM

Cell Line: IST-SL2 (small cell lung carcinoma, suspension)
- AUC [1]: 0.969
- IC50 [1]: > 2000 nM
- AUC [2]: 0.989
- IC50 [2]: > 5000 nM
- AUC [3]: 0.942
- IC50 [3]: > 10000 nM
- AUC [4]: 0.966
- IC50 [4]: > 2000 nM

Cell Line: RF-48 (stomach, adherent)
- AUC [1]: 0.983
- IC50 [1]: > 2000 nM
- AUC [2]: 0.977
- IC50 [2]: > 5000 nM
- AUC [3]: 0.926
- IC50 [3]: > 10000 nM
- AUC [4]: 0.973
- IC50 [4]: > 2000 nM

Cell Line: SNU-C1 (large intestine, suspension)
- AUC [1]: 0.975
- IC50 [1]: > 2000 nM
- AUC [2]: 0.98
- IC50 [2]: > 5000 nM
- AUC [3]: 0.96
- IC50 [3]: > 10000 nM
- AUC [4]: 0.947
- IC50 [4]: > 2000 nM

Cell Line: NCI-H1770 (non-small cell lung carcinoma, suspension)
- AUC [1]: 0.987
- IC50 [1]: > 2000 nM
- AUC [2]: 0.992
- IC50 [2]: > 5000 nM
- AUC [3]: 0.992
- IC50 [3]: > 10000 nM
- AUC [4]: 0.991
- IC50 [4]: > 2000 nM

Cell Line: AM-38 (glioma, semi-adherent)
- AUC [1]: 0.988
- IC50 [1]: > 2000 nM
- AUC [2]: 0.988
- IC50 [2]: > 5000 nM
- AUC [3]: 0.985
- IC50 [3]: > 10000 nM
- AUC [4]: 0.984
- IC50 [4]: > 2000 nM

Cell Line: OCI-AML2 (acute myeloid leukaemia, suspension)
- AUC [1]: 0.995
- IC50 [1]: > 2000 nM
- AUC [2]: 0.995
- IC50 [2]: > 5000 nM
- AUC [3]: 0.994
- IC50 [3]: > 10000 nM
- AUC [4]: 0.995
- IC50 [4]: > 2000 nM

Cell Line: NB17 (neuroblastoma, adherent)
- AUC [1]: 0.974
- IC50 [1]: > 2000 nM
- AUC [2]: 0.983
- IC50 [2]: > 5000 nM
- AUC [3]: 0.982
- IC50 [3]: > 10000 nM
- AUC [4]: 0.982
- IC50 [4]: > 2000 nM

Cell Line: Raji (Burkitt lymphoma, suspension)
- AUC [1]: 0.987
- IC50 [1]: > 2000 nM
- AUC [2]: 0.976
- IC50 [2]: > 5000 nM
- AUC [3]: 0.983
- IC50 [3]: > 10000 nM
- AUC [4]: 0.977
- IC50 [4]: > 2000 nM

Cell Line: KP-N-YN (neuroblastoma, adherent)
- AUC [1]: 0.967
- IC50 [1]: > 2000 nM
- AUC [2]: 0.987
- IC50 [2]: > 5000 nM
- AUC [3]: 0.986
- IC50 [3]: > 10000 nM
- AUC [4]: 0.974
- IC50 [4]: > 2000 nM

Cell Line: BL-41 (Burkitt lymphoma, suspension)
- AUC [1]: 0.979
- IC50 [1]: > 2000 nM
- AUC [2]: 0.994
- IC50 [2]: > 5000 nM
- AUC [3]: 0.968
- IC50 [3]: > 10000 nM
- AUC [4]: 0.994
- IC50 [4]: > 2000 nM

Cell Line: KCL-22 (chronic myeloid leukaemia, suspension)
- AUC [1]: 0.985
- IC50 [1]: > 2000 nM
- AUC [2]: 0.991
- IC50 [2]: > 5000 nM
- AUC [3]: 0.991
- IC50 [3]: > 10000 nM
- AUC [4]: 0.991
- IC50 [4]: > 2000 nM

Cell Line: NB13 (neuroblastoma, adherent)
- AUC [1]: 0.99
- IC50 [1]: > 2000 nM
- AUC [2]: 0.99
- IC50 [2]: > 5000 nM
- AUC [3]: 0.99
- IC50 [3]: > 10000 nM
- AUC [4]: 0.99
- IC50 [4]: > 2000 nM

Cell Line: OPM-2 (myeloma, suspension)
- AUC [1]: 0.994
- IC50 [1]: > 2000 nM
- AUC [2]: 0.994
- IC50 [2]: > 5000 nM
- AUC [3]: 0.994
- IC50 [3]: > 10000 nM
- AUC [4]: 0.859
- IC50 [4]: 1190 nM

Cell Line: GB-1 (glioma, adherent)
- AUC [1]: 0.981
- IC50 [1]: > 2000 nM
- AUC [2]: 0.946
- IC50 [2]: > 5000 nM
- AUC [3]: 0.898
- IC50 [3]: > 10000 nM
- AUC [4]: 0.979
- IC50 [4]: > 2000 nM

Cell Line: P32-ISH (Burkitt lymphoma, suspension)
- AUC [1]: 0.993
- IC50 [1]: > 2000 nM
- AUC [2]: 0.995
- IC50 [2]: > 5000 nM
- AUC [3]: 0.994
- IC50 [3]: > 10000 nM
- AUC [4]: 0.995
- IC50 [4]: > 2000 nM

Cell Line: ES4 (Ewing sarcoma, adherent)
- AUC [1]: 0.878
- IC50 [1]: > 2000 nM
- AUC [2]: 0.968
- IC50 [2]: > 5000 nM
- AUC [3]: 0.973
- IC50 [3]: > 10000 nM
- AUC [4]: 0.942
- IC50 [4]: > 2000 nM

Cell Line: ALL-PO (lymphoblastic leukaemia, suspension)
- AUC [1]: 0.971
- IC50 [1]: > 2000 nM
- AUC [2]: 0.947
- IC50 [2]: > 5000 nM
- AUC [3]: 0.933
- IC50 [3]: > 10000 nM
- AUC [4]: 0.897
- IC50 [4]: > 2000 nM

Cell Line: TGBC1TKB (biliary tract, adherent)
- AUC [1]: 0.898
- IC50 [1]: > 2000 nM
- AUC [2]: 0.989
- IC50 [2]: > 5000 nM
- AUC [3]: 0.961
- IC50 [3]: > 10000 nM
- AUC [4]: 0.989
- IC50 [4]: > 2000 nM

Cell Line: NCI-H524 (small cell lung carcinoma, suspension)
- AUC [1]: 0.987
- IC50 [1]: > 2000 nM
- AUC [2]: 0.986
- IC50 [2]: > 5000 nM
- AUC [3]: 0.982
- IC50 [3]: > 10000 nM
- AUC [4]: 0.991
- IC50 [4]: > 2000 nM

Cell Line: Daudi (Burkitt lymphoma, suspension)
- AUC [1]: 0.987
- IC50 [1]: > 2000 nM
- AUC [2]: 0.99
- IC50 [2]: > 5000 nM
- AUC [3]: 0.96
- IC50 [3]: > 10000 nM
- AUC [4]: 0.99
- IC50 [4]: > 2000 nM

Cell Line: LAMA-84 (chronic myeloid leukaemia, suspension)
- AUC [1]: 0.987
- IC50 [1]: > 2000 nM
- AUC [2]: 0.981
- IC50 [2]: > 5000 nM
- AUC [3]: 0.986
- IC50 [3]: > 10000 nM
- AUC [4]: 0.859
- IC50 [4]: 1700 nM
